25 compounds from the supplement of paper PMC8007513 can be followed below.

Counter-ions that a name gives are not always drawn. ± gives the standard error. Hit rate of the full screen: of about 1,300 compounds, about 75 (6%) showed an effect of 50% or more. This is one part of the list.

This test has as its system Trichoderma virens ATCC 9645. Briefly: growth yield (OD600) relative to untreated control; higher = less growth inhibition. The conditions noted are these: compound concentration: 100 uM. An outline of the steps:
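Trichoderma virens ATCC 9645 spores, from potato dextrose agar plates grown for 7 days, were brought to 15,000 spores ml^−1 in potato dextrose broth and dispensed as 100 μl aliquots into 96-well plates. Each aliquot received library compounds at 100 μM final, with or without a biocide at 200 ng ml^−1, before growth at 30 °C and OD600 readings on a BioTek EL800 at 40 h and 72 h. Growth is expressed relative to the control containing neither agent and represents means of duplicate screens.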

On to `CN1[C@@H]2CC[C@H]1C[C@@H](OC1c3ccccc3CCc3ccccc31)C2` [Deptropine citrate], for which the growth yield (40 h) was 97.1 ± 2.7% and the growth yield (72 h) worked out at 97 ± 1.1%.
As for `C[C@]12CC[C@@H]3c4ccc(OC(=O)N(CCCl)CCCl)cc4CC[C@H]3[C@@H]1CC[C@@H]2O` [Estramustine], the growth yield by setting is: (40 h) 107 ± 5.1%; (72 h) 103 ± 3.7%.
For `C=C(C)[C@@H]1[C@H]2OC(=O)[C@@H]1[C@]1(O)C[C@H]3O[C@]34C(=O)O[C@H]2[C@]14C` [Picrotoxinin], in that order: 100 ± 2.7% and 98.8 ± 2.9%.
For `CC(C)c1c(CN(C)C(C)Cc2ccccc2)n(C)n(-c2ccccc2)c1=O` (stereo not given) [Famprofazone], in that order: 93.4 ± 0.32% and 91.6 ± 0.94%.
Consider `NC(=O)CN1CCCC1=O` [Piracetam], for which the growth yield by setting is: (40 h) 103.9 ± 0.32%; (72 h) 102.2 ± 0.52%.
Taken in the same sequence, the figures for `CC(=O)OCC(=O)[C@H]1CC[C@H]2[C@@H]3CC[C@H]4C[C@H](O)CC[C@]4(C)[C@H]3C(=O)C[C@]12C` [Alfadolone acetate] were 95.5 ± 5.2% and 93.8 ± 3.8%.
Taken in the same sequence, the figures for `CC(=O)NC1CCSC1=O` (racemic) [N-Acetyl-DL-homocysteine Thiolactone] were 98.32 ± 0.79% and 95.1 ± 2.8%.
Taken in the same sequence, the figures for `CC(Cc1ccccc1)NCCC(c1ccccc1)c1ccccc1` (stereo not given) [Prenylamine lactate] were 104 ± 2.1% and 113 ± 3.1%.
As to `C[C@]12CC[C@H](O)C[C@H]1CC[C@@H]1[C@@H]2C[C@@H](O)[C@]2(C)[C@@H](C3=CC(=O)OC3)CC[C@]12O` [Digoxigenin], the growth yield (40 h) turned out to be 99.6 ± 7.5% and the growth yield (72 h) is 98.2 ± 5.5%.
Taken in the same sequence, the figures for `Clc1ccc(C(OCCN2CCCCC2)c2ccccc2)cc1` (stereo not given) [Cloperastine hydrochloride] were 103 ± 8.3% and 106 ± 6.9%.
Taken in the same sequence, the figures for `CN1CCN(C(=O)OC2c3nccnc3C(=O)N2c2ccc(Cl)cn2)CC1` (stereo not given) [Zopiclone] were 106.3 ± 0.79% and 106 ± 1.5%.
Taken in the same sequence, the figures for `NC(=O)C[S+]([O-])C(c1ccccc1)c1ccccc1` (stereo not given) [Modafinil] were 102 ± 1.3% and 101 ± 1.7%.
Regarding `Cc1cccc(C)c1NC1=NCCCS1` [Xylazine], the growth yield stood at 108 ± 4.5% (40 h) and 106 ± 3.4% (72 h).
Taken in the same sequence, the figures for `COc1cc([C@@H]2c3cc4c(cc3[C@H](O)[C@H]3COC(=O)[C@H]23)OCO4)cc(OC)c1OC` [Podophyllotoxin] were 98.5 ± 1.3% and 96.38 ± 0.1%.
Taken in the same sequence, the figures for `CCC1(c2cccc(O)c2)CCCCN(C)C1` (stereo not given) [Meptazinol hydrochloride] were 101 ± 1.8% and 98.79 ± 0.84%.
Taken in the same sequence, the figures for `C[C@@H]1CC[C@H]2[C@@H](C)C(=O)O[C@@H]3O[C@@]4(C)CC[C@@H]1[C@]32OO4` [Artemisinin] were 69.89 ± 0.64% and 82.4 ± 2.1%.
For the compound `CCC(COC(=O)c1cc(OC)c(OC)c(OC)c1)(c1ccccc1)N(C)C` (stereo not given) [Trimebutine], the growth yield came to 104 ± 3% (40 h) and 101 ± 2.9% (72 h).
On to `NCCc1c[nH]c2ccc(O)cc12` [Serotonin hydrochloride], for which the growth yield runs as follows: (40 h) 112 ± 5.6%; (72 h) 109 ± 4.2%.
Taken in the same sequence, the figures for `CCN(C(C)=O)c1cccc(-c2ccnc3c(C#N)cnn23)c1` [Zaleplon] were 101 ± 1.4% and 102 ± 1.1%.
Turning to `CO[C@]12C[C@@H](COC(=O)c3cncc(Br)c3)CN(C)[C@@H]1Cc1cn(C)c3cccc2c13` [Nicergoline], the growth yield (40 h) was 99.1 ± 2.2% and the growth yield (72 h) was found to be 103 ± 3.2%.
For `CC(=O)OCC1=C(C(=O)O)N2C(=O)[C@@H](N)[C@H]2SC1` [Cephalosporanic acid, 7-amino], in that order: 105 ± 5.7% and 107 ± 6.2%.
With `C[N+]12CCC(CC1)C(OC(=O)C(O)(c1ccccc1)c1ccccc1)C2` (stereo not given) [Clidinium bromide], the growth yield came out at 92.4 ± 3.5% (40 h) and 89.9 ± 3.7% (72 h).
Taken in the same sequence, the figures for `C[C@]12Cc3c[nH]nc3C[C@@H]1CC[C@@H]1[C@@H]2CC[C@@]2(C)[C@H]1CC[C@]2(C)O` [Stanozolol] were 88.3 ± 14% and 93.7 ± 10%.
Take `CC(C)(C)NCC(O)c1ccccc1Cl` (stereo not given) [Tulobuterol]: the growth yield came to 108.2 ± 0.48% (40 h) and 103.4 ± 0.21% (72 h).
Taken in the same sequence, the figures for `CC(C)C[C@H](CN)CC(=O)O` [Pregabalin] were 101.5 ± 0.16% and 100.5 ± 0.63%.
